This is an account of results in the antibiotic and cytotoxicity screens of Wong et al. (2023).

Test [1] has as its system HSkMC (human skeletal muscle cells). In words: cytotoxicity call (relative viability < 0.9). Particulars: 10 µM.
For test [2], the system named is HepG2. In words: cytotoxicity call (relative viability < 0.9). As to conditions: 10 µM.
Test [3] relates to S. aureus RN4220. In words: growth inhibition call (relative growth <= 0.2). As to conditions: 50 µM.

The other results are listed elsewhere or left out.

Take `C[C@H]1CN([C@@H](C)CO)S(=O)(=O)c2ccc(-c3cccc(C(=O)N(C)C)c3)cc2O[C@@H]1CN(C)C(=O)Cc1ccccn1`: the cytotoxicity call in test [1] and in test [2] was “inactive” throughout. Also, the growth inhibition call in test [3] was “inactive”.
As to `COc1ccc(S(=O)(=O)N(C)C[C@@H]2Oc3ccc(NC(=O)CCCN(C)C)cc3CC(=O)N([C@H](C)CO)C[C@H]2C)cc1`, the cytotoxicity call in test [1] and in test [2] was “inactive” throughout. For the same compound, the growth inhibition call in test [3] was “inactive”.
Regarding `CC=CCC(C)C(O)C1C(=O)NC(CC)C(=O)N(C)CC(=O)N(C)C(CC(C)C)C(=O)NC(C(C)C)C(=O)N(C)C(CC(C)C)C(=O)NC(C)C(=O)NC(C)C(=O)N(C)C(CC(C)C)C(=O)N(C)C(CC(C)C)C(=O)N(C)C(C(C)C)C(=O)N1C` (stereo not given), in test [1], the cytotoxicity call is “inactive”. In test [2], the cytotoxicity call was “active”. Besides, the growth inhibition call in test [3] was “inactive”.
As to `C[C@H](CO)N1C[C@H](C)[C@@H](CN(C)S(=O)(=O)c2ccc(F)cc2)Oc2c(NC(=O)Nc3cccc4ccccc34)cccc2C1=O`, the cytotoxicity call in test [1] and in test [2] was “inactive” throughout. For the same compound, the growth inhibition call in test [3] was “inactive”.
In the case of `C=CCSCC=C`, the cytotoxicity call in test [1] and in test [2] was “inactive” in each case. Besides, the growth inhibition call in test [3] is “inactive”.
Take `C[C@@H]1CN([C@@H](C)CO)C(=O)c2cc(C#CC3CC3)cnc2O[C@@H]1CN(C)S(=O)(=O)c1cccc(F)c1`: the cytotoxicity call in test [1] and in test [2] was “inactive” in each case. Further, the growth inhibition call in test [3] was “inactive”.
On to `C[C@@H]1CN([C@H](C)CO)C(=O)c2cc(-c3cccnc3)cnc2O[C@H]1CN(C)Cc1ccc(-c2ccccc2)cc1`, for which the cytotoxicity call in test [1] and in test [2] was “inactive” in each case. Also, the growth inhibition call in test [3] is “inactive”.
As to `C[C@H](CO)N1C[C@H](C)[C@H](CN(C)C(=O)Nc2ccccc2)OCCCC[C@H](C)Oc2ccc(NS(=O)(=O)c3cccs3)cc2C1=O`, the cytotoxicity call in test [1] and in test [2] was “inactive” in each case. In addition, in test [3], the growth inhibition call is “inactive”.
As to `C[C@H](CO)N1C[C@H](C)[C@@H](CN(C)C(=O)Nc2ccc3c(c2)OCO3)OCc2cnnn2CCCC1=O`, the cytotoxicity call in test [1] and in test [2] was “inactive” throughout. In test [3], the growth inhibition call was “inactive”.
Take `C[C@@H]1CN([C@@H](C)CO)C(=O)c2cc(NC(=O)Cc3cn(C)c4ccccc34)ccc2O[C@@H]1CN(C)Cc1ccc(C(F)(F)F)cc1`: the cytotoxicity call in test [1] and in test [2] was “inactive” each time. The growth inhibition call in test [3] is “inactive”.
On to `CCO[C@@H]1OC(C(=O)N2CCN(Cc3ccc4c(c3)OCO4)CC2)=C[C@H](c2ccc3c(c2)OCO3)[C@H]1CCCO`, for which the cytotoxicity call in test [1] and in test [2] was “inactive” throughout. Also, the growth inhibition call in test [3] is “inactive”.
Take `C[C@H](CO)N1C[C@H](C)[C@@H](CN(C)Cc2ccc(Oc3ccccc3)cc2)Oc2c(NC(=O)C3CCOCC3)cccc2C1=O`: the cytotoxicity call in test [1] and in test [2] was “inactive” each time. Further, the growth inhibition call in test [3] was “inactive”.
As to `COc1ccc(S(=O)(=O)Nc2cccc3c2O[C@H](CN(C)S(=O)(=O)c2c(C)noc2C)[C@@H](C)CN([C@@H](C)CO)C3=O)cc1`, the cytotoxicity call in test [1] and in test [2] was “inactive” throughout. Also, the growth inhibition call in test [3] was “inactive”.
As to `CCS(=O)(=O)Nc1ccc2c(c1)C(=O)N(C)C[C@H](OC)[C@@H](C)CN(Cc1ccccn1)[C@H](C)CO2`, the cytotoxicity call in test [1] and in test [2] was “inactive” each time. Besides, the growth inhibition call in test [3] was “inactive”.
For `Cc1noc(C)c1NC(=O)N(C)C[C@H]1OCCCC[C@H](C)Oc2ccc(NC(=O)Nc3ccc4c(c3)OCO4)cc2C(=O)N([C@H](C)CO)C[C@@H]1C`, the cytotoxicity call in test [1] and in test [2] was “inactive” each time. Moreover, the growth inhibition call in test [3] is “inactive”.
In the case of `CCNC(=O)[C@H]1N[C@H]2c3ccc(-c4cccc(C(=O)N(C)C)c4)c(=O)n3C[C@H]2[C@@H]1CO`, the cytotoxicity call in test [1] and in test [2] was “inactive” in each case. In addition, the growth inhibition call in test [3] was “inactive”.
Regarding `C[C@@H](C[N+](C)(C)C)OC(N)=O`, the cytotoxicity call in test [1] and in test [2] was “inactive” in each case. Further, in test [3], the growth inhibition call was “inactive”.
Turning to `Cc1ccc(S(=O)(=O)Nc2ccc3c(c2)C(=O)N([C@@H](C)CO)C[C@@H](C)[C@H](CN(C)C(=O)Nc2cccc4ccccc24)OCCCC[C@H](C)O3)cc1`, the cytotoxicity call in test [1] and in test [2] was “inactive” in each case. Further, in test [3], the growth inhibition call is “inactive”.
With `COc1ccc(NC(=O)N(C)C[C@@H]2OCCCC[C@@H](C)Oc3ccc(NS(=O)(=O)c4c(C)noc4C)cc3C(=O)N([C@H](C)CO)C[C@H]2C)cc1`, the cytotoxicity call in test [1] and in test [2] was “inactive” throughout. The growth inhibition call in test [3] was “inactive”.
Consider `C[C@@H]1CCCCO[C@H](CN(C)C(=O)Nc2ccccc2)[C@H](C)CN([C@H](C)CO)C(=O)c2cc(NC(=O)Cc3ccccc3)ccc2O1`, for which the cytotoxicity call in test [1] and in test [2] was “inactive” in each case. For the same compound, in test [3], the growth inhibition call was “inactive”.
In the case of `C[C@@H]1CCCCO[C@@H](CN(C)C(=O)c2ccccc2)[C@H](C)CN([C@@H](C)CO)C(=O)c2cc(NC(=O)C3CCCCC3)ccc2O1`, the cytotoxicity call in test [1] and in test [2] was “inactive” in each case. The growth inhibition call in test [3] is “inactive”.
As to `CC(C)CC#Cc1ccc2c(c1)O[C@@H](CN(C)S(=O)(=O)c1ccc(F)cc1)[C@@H](C)CN([C@@H](C)CO)S2(=O)=O`, the cytotoxicity call in test [1] and in test [2] was “inactive” throughout. Besides, in test [3], the growth inhibition call is “inactive”.
In the case of `COc1ccccc1S(=O)(=O)N(C)C[C@H]1Oc2cc(C#CCC(C)C)ccc2S(=O)(=O)N([C@H](C)CO)C[C@@H]1C`, the cytotoxicity call in test [1] and in test [2] was “inactive” in each case. Also, the growth inhibition call in test [3] was “inactive”.
Take `C[C@@H]1CCCCO[C@H](CN(C)C(=O)Nc2ccc(C(F)(F)F)cc2)[C@H](C)CN([C@H](C)CO)C(=O)c2cc(NS(=O)(=O)c3ccc(F)cc3)ccc2O1`: in test [1], the cytotoxicity call is “inactive”. In test [2], the cytotoxicity call was “active”. The growth inhibition call in test [3] is “inactive”.
Turning to `Cc1cc(C(=O)O)nn1C`, the cytotoxicity call in test [1] and in test [2] was “inactive” each time. For the same compound, the growth inhibition call in test [3] is “inactive”.
